Hit rate of the full screen: of about 350,000 compounds, about 31,000 (8.9%) were called active. This list was built around the results that the source calls inconclusive (neither active nor inactive); the mix of calls is not that of the screen. Calls come from the whole dose curve; as a rule, active = well fitted inhibition curve with a large enough effect; inconclusive = small, poorly fitted or top-dose-only effect; inactive = no such curve, though single readings can be large or run the other way. Potencies beside an inconclusive call are fits to weak or partial responses and may not hold up.
molecular target: Histone-lysine N-methyltransferase EHMT2 (Homo sapiens) (UniProt Q96KQ7); test: qHTS Assay for Inhibitors of Histone Lysine Methyltransferase G9a; conditions: G9a H3K9 monomethylation, AlphaScreen, 2 h; activity, negative = inhibition: at 59 µM (top of the series) unless noted; note: nearly all actives have a fitted effect of over 75% in size
Sequence of UniProt Q96KQ7 (Q96KQ7 whole entry, looked up): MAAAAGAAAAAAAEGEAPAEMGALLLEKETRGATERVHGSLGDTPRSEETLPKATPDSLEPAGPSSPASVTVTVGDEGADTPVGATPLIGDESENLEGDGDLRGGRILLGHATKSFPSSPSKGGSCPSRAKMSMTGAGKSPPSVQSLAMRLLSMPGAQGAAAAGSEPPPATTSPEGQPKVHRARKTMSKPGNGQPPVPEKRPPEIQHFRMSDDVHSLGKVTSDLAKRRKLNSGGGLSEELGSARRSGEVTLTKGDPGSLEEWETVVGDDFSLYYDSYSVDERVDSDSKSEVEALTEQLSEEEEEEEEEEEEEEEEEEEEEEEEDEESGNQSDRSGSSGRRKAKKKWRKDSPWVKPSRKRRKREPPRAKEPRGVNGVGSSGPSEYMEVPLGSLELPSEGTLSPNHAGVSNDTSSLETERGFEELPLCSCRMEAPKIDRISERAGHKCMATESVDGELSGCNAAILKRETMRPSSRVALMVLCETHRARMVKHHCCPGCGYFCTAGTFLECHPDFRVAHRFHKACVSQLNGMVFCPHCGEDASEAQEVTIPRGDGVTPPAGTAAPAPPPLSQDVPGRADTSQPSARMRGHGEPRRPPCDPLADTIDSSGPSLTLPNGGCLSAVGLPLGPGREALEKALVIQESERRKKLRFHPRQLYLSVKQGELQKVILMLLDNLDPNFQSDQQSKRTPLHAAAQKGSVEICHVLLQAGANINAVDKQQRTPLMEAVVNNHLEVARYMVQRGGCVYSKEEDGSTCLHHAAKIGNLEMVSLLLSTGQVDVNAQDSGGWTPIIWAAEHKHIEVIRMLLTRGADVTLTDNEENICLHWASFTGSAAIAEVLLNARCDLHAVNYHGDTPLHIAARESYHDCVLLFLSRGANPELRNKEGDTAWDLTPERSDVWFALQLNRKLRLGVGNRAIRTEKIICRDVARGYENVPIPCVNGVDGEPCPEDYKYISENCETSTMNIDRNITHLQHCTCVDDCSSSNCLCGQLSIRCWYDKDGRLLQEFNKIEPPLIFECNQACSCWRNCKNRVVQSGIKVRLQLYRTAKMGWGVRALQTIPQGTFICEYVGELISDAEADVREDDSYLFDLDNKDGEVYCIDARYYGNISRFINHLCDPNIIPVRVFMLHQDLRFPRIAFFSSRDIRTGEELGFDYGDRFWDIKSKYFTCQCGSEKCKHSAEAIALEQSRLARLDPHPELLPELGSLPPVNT
Method in brief: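 AlphaScreen read-out: biotin-H3K9 peptide (500 nM) methylation by 20 nM enzyme with 20 uM SAM, 2 h at room temperature after 15 min compound preincubation; anti-monomethyl H3K9 antibody plus donor/acceptor beads, 10 min dark.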
% is set by controls: 0 for no effect and ±100 for the full control effect; potency is the fitted concentration of half-maximal effect; tags give direction and shape of the fitted curve.

SMILES	Potency	activity, negative = inhibition
COc1cccc(C2/C(=C(\O)c3c(C)nc4c(C)cccn34)C(=O)C(=O)N2CCCN(C)C)c1OC (configuration not stated)	inconclusive: 79.4 µM [inhibitor, single point]	
CCOC(=O)N1CCC(N2Cc3cccc(C(=O)NCc4ccc(C)cc4)c3C2=O)CC1	inconclusive: 89.1 µM [inhibitor, single point]	
Cc1ccc(C(=O)C2=C(O)C(=O)N(Cc3ccco3)C2c2cccc(Br)c2)o1 (configuration not stated)	inconclusive: 44.7 µM [inhibitor, partial curve, poor fit]	
Cc1ccc(CNC(=O)c2c(Nc3c(C)cccc3C)sc(C(=O)c3ccccc3)c2N)cc1	inconclusive: 39.8 µM [inhibitor, single point]	
COc1ccc(N=C2SC(C(=O)N3CCN(c4ccccc4)CC3)CC(=O)N2C)cc1 (configuration not stated)	inconclusive: 50.1 µM [inhibitor, partial curve]	
O=C(Nc1ccc(Cl)cc1F)C1CCN(S(=O)(=O)c2cccc3nonc23)CC1	inactive	
O=C(N/N=C/c1ccccc1Cl)c1[nH]c2ccc(Br)cc2c1-c1ccccc1	inactive	
O=C(CSc1cn[nH]n1)Nc1cccc(C(F)(F)F)c1	inconclusive: 25.1 µM [inhibitor, single point]	
O=C(CSc1cccc[n+]1[O-])Nc1ccc(N2CCOCC2)cc1	active: 56.2 µM	
COc1cc(OC)c(C(=O)OCC(=O)NCCC2=CCCCC2)cc1OC	inconclusive: 89.1 µM [inhibitor, single point]	
CC(=O)c1cccc(NC(=O)c2cc3ccccn3n2)c1	inactive	
C=CCN(C(=O)CSC1=NC(=O)CN1C(C)=O)c1nc(C)c(-c2ccccc2)s1	active: 39.8 µM	
Cc1cccc(OCCCC(=O)NNC(=O)c2ccccn2)c1	inconclusive: 1.58 µM [inhibitor, partial curve, poor fit]	
O=C(Nc1nc2cc3c(cc2s1)OCCO3)C1CCCCC1	inconclusive: 79.4 µM [inhibitor, partial curve, poor fit]	
CCN(CC)c1ccc2c(c1)CCCN2	active: 1.78 µM	
N/C(=N\OC(=O)N1c2ccccc2Sc2ccccc21)c1ccc(Br)cc1	active: 50.1 µM	
CC(C)Cc1nnc(NC(=O)CCNC(=O)c2ccccc2Cl)s1	inconclusive: 7.08 µM [inhibitor, single point]	
COc1ccc(N2CCCn3c2nc2c3c(=O)n(CCN3CCOCC3)c(=O)n2C)cc1	inconclusive: 11.2 µM [inhibitor, partial curve, poor fit]	
CN(C)c1ccc(CNC(=O)c2ccc3nc(Cc4ccccc4)oc3c2)cc1	inconclusive: 7.08 µM [inhibitor, full curve]	
O=C(CSc1nnc(-c2ccco2)n1-c1ccccc1Cl)Nc1cccc(C(=O)O)c1	inconclusive: 79.4 µM [inhibitor, single point]	
CC1CCCC(C)N1C(=O)COC(=O)CCC1CCCC1 (configuration not stated)	inactive	

SMILES	Potency	activity, negative = inhibition
Cc1nc2nc(NCc3ccc(Br)cc3)[nH]n2c(=O)c1Cc1ccccc1	inconclusive: 0.794 µM [inhibitor, full curve]	
Cc1nnc(NC(=O)c2ccccc2NC(=O)c2ccccc2)s1	active: 50.1 µM	
O=C(c1ccc(Cl)cc1)c1ccc(Oc2cc(NN3CCCCC3)c([N+](=O)[O-])cc2[N+](=O)[O-])cc1	inconclusive: 12.6 µM [inhibitor, partial curve, poor fit]	
COc1ccc(-c2csc(/C(C#N)=C\c3ccc(OC)c([N+](=O)[O-])c3)n2)cc1	inactive	
COc1cccc(-c2nc(-c3ccc(NC(=O)c4ccncc4)cc3)no2)c1	inconclusive: 89.1 µM [inhibitor, partial curve, poor fit]	
CN(CCCNC(=O)C1CCN(S(=O)(=O)N2CCC3(CC2)OCCO3)CC1)Cc1ccccc1	inconclusive: 89.1 µM [inhibitor, single point]	
COc1ccc(C2CC(=O)N(CC(=O)NCC3CCCO3)c3ccccc3S2)cc1 (configuration not stated)	inactive	
COc1cccc(C2C(C(N)=O)=C(C)Nc3ncnn32)c1 (configuration not stated)	inactive	
O=C(CSc1nc2nc(-c3cccs3)cc(C(F)(F)F)c2c(=O)[nH]1)Nc1c(F)c(F)c(F)c(F)c1F	inactive	
CCCN(CC(=O)Nc1ccccc1C)C(=O)c1ccc2[nH]c3c(c2c1)CC(C)CC3 (configuration not stated)	inconclusive: 31.6 µM [inhibitor, single point]	
CN(C)c1ccc(NC(=O)Cn2ncn3c(cc4ccccc43)c2=O)cc1	inconclusive: 1.78 µM [inhibitor, full curve, poor fit]	
Cc1ccc(/C=N/Nc2ccc3c(C(F)(F)F)cc(C(F)(F)F)nc3n2)cc1	inconclusive: 89.1 µM [inhibitor, partial curve, poor fit]	
Cc1nc([N+](=O)[O-])c(C(=O)OCc2ccccc2Br)n1C	inconclusive: 44.7 µM [inhibitor, partial curve]	
Cn1nnnc1SCc1nnc(-c2ccc(Cl)cc2)o1	inactive	
Cn1ncc(Cl)c1C(=O)Nc1nc2ccc(Cl)cc2s1	active: 7.94 µM	
O=C(N/C(=C\c1ccc(Cl)cc1)C(=O)N1CCOCC1)c1ccc([N+](=O)[O-])cc1		inconclusive: -59.6% [inhibitor] [at 102 µM]
COc1cc(NC(=S)N2CCN(S(=O)(=O)c3ccccc3)CC2)cc(OC)c1	inconclusive: 22.4 µM [inhibitor, full curve]	
Cc1ccc(OCC(=O)Nc2ccc(CN3CCOCC3)cc2)cc1C	inconclusive: 5.62 µM [inhibitor, partial curve, poor fit]	
CCc1nc(SCC(=O)N2CCOCC2)c2c(=O)n(C)c(=O)n(C)c2n1	inconclusive: 63.1 µM [inhibitor, partial curve, poor fit]	
CCCSc1nnc(NC(=O)Nc2ccc(F)cc2)s1	inconclusive: 1.78 µM [inhibitor, partial curve, poor fit]	
O=c1c2c([N+](=O)[O-])cc([N+](=O)[O-])cc2sn1-c1ccc(Br)cc1	active: 1.41 µM	

— PubChem BioAssay AID504332 (National Center for Advancing Translational Sciences (NCATS), 2011)
